In all, about 33,000 sequences were measured (“E-score (-0.5 to 0.5)”: median about -0.016, highest 2% from about 0.32 on). The list shows a part of the results.
The sequences below were run against T1, Stp1 (UniProt B3LFK1) (assay: PBM E-score (8-mer binding enrichment) (E-score (-0.5 to 0.5)); higher = stronger / more preferred TF binding; most listed sequences are background and not binding sites). Details: protein concentration: 200 nM; construct: GST-full length.
T1 sequence: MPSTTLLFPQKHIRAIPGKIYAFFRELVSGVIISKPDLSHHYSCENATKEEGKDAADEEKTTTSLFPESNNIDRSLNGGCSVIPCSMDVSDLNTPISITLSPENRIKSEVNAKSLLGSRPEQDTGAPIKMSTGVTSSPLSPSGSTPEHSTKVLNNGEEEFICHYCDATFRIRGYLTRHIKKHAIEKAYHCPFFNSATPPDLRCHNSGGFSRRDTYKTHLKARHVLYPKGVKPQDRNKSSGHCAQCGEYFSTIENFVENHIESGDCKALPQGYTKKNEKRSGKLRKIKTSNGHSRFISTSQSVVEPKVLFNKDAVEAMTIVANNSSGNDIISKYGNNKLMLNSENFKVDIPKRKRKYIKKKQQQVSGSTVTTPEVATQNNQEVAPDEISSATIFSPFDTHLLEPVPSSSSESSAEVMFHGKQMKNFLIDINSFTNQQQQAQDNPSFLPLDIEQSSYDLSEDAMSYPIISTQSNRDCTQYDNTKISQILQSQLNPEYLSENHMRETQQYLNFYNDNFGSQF
Method in brief: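 E-scores (a modified Wilcoxon-Mann-Whitney statistic) were assigned by the Universal PBM Analysis Suite to every ungapped eight-base word pooled with its reverse complement. The input came from universal all-10-mer Agilent arrays made double-stranded by primer extension and probed with GST-tagged yeast transcription factors at about 100-200 nM. Fluorescent anti-GST detected bound protein, and masliner normalised the scans.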

Sequence | PBM E-score
AGCAGATG | -0.255
CGTGACAC | 0.0961
TATAGAGA | 0.0248
CGCGACTC | -0.169
CCGGGTAC | -0.00701
CTCACCCA | -0.141
GTGGGAAA | 0.0444
CAACGACC | -0.0528
CCGATTCA | 0.0966
AGGACCCC | -0.286
CGGGCCCA | -0.0553
CCGCAAAA | 0.178
ATTAGACC | -0.194
GCTGCAAA | 0.0984
TTATGAAA | 0.178
AGCTCGTC | -0.0849
CGGCCTCA | 0.2
ACAACTTC | 0.091
ACACTTTG | -0.0996
GAATTAGA | -0.00696
ACACCTCT | -0.0926
CTCCCATC | -0.0271
AACAACTT | 0.0056
GCCACGGA | 0.163
CAGAGACA | -0.273

Sequence | PBM E-score
GACTATCC | -0.178
ATTAGTAG | 0.0992
AGACCCGA | -0.0722
CCGCGTCA | 0.214
AACCCTCT | -0.36
AGCCTAGC | -0.197
ATTTGCGG | 0.123
CCGATGCC | 0.264
TAGCGAGA | -0.0854
AATCGAAG | 0.199
ATGGCTGA | -0.0787
CGCCGGAC | 0.0983
CACTCCGG | -0.0179
CAATCCTG | -0.0105
AACCCGAA | -0.145
ACCTCTTG | -0.174
TAGCACGA | 0.1
CTACACTC | -0.0992
TGCTACCA | 0.0189
CGGGAAAC | 0.0127
ATACCCCC | -0.283
GGCGGAAA | 0.0632
AGGCTCAG | -0.0826
CCTAGGTA | -0.179
CCCAGACG | -0.255

Sequence | PBM E-score
CACGGGAA | 0.0307
CCCCCACC | -0.39
ATACTCTC | -0.0667
GAGAACCA | -0.0465
ACTCTGAG | -0.046
CCCCTTTA | -0.146
CGGTCGTC | -0.23
ACCATGGT | -0.22
CCTCATGC | -0.149
ACAGCCAC | 0.102
CACCCTGG | -0.39
ATTGCAGA | 0.0253
CCGTAACC | 0.0805
AGGGCACT | 0.239
GCTACGCC | 0.0422
GAGGGAAA | -0.208
ATCTCTTG | -0.137
CTCCCATA | -0.319
AATCCATG | 0.0212
ACGCGCCG | 0.412
AGAGGAGC | -0.119
CCGCGAAC | -0.0404
AACAGTTA | 0.12
ACTTCATG | -0.118
CACCCGTA | -0.0542

Sequence | PBM E-score
AAATTCAT | 0.0395
ATCGTCCG | 0.00927
CTTGGACA | -0.051
AAAAACAT | 0.0934
AGCCCTAT | 0.0437
CTTACACC | -0.0813
AATAGGTG | -0.102
ACCCCTAC | -0.318
ACACCCGC | 0.0105
TAGTCCGA | -0.0522
GCTCAGCA | -0.0239
GACCAAAC | -0.0249
AAGTATTA | -0.0297
AAACTTTA | 0.0741
CACAACAA | 0.163
AATCTGGT | 0.0301
CGTACTAC | 0.0146
AGCCGGAT | 0.0422
CCTGAGGA | -0.185
CAAGTGGA | -0.131
AGGAAGCA | -0.168
AGATTCAT | -0.0462
AGTTTTTA | 0.138
CAGTCGCC | 0.00112
TGAACCCA | -0.124

Sequence | PBM E-score
GAAACTTA | 0.132
CGTAGAAA | 0.0902
GCTTCGAC | -0.0951
ACGTAGGG | -0.203
AGCCTTGC | 0.325
ACTATGTC | -0.0832
AGTCAGGG | -0.259
ATAGGCTG | -0.186
AAGGCGTA | 0.234
CGGTTCGC | -0.0225
CCAAATGG | 0.0952
GTGGTTGA | -0.00686
TGCGGCCA | 0.233
AGATGGAA | -0.00795
AATTTAGT | 0.0973
CGAGCAGC | 0.0563
GAGGATCA | 0.0371
ATTAAGCA | 0.00694
CAGTGCTC | -0.165
AAAACCTC | 0.0139
GAGGGAGA | -0.223
CGCCCTGC | 0.346
TAACATGA | 0.0428
TCGGTGAA | -0.143
AAGCTTAC | -0.0335

Sequence | PBM E-score
CATTGGAC | -0.155
AGCCTACG | 0.132
CGTAAATC | 0.079
TGAGGCCA | -0.0923
CGAGGTTA | -0.132
CCTTTTTA | 0.015
ACTGTGCA | 0.0246
CGGGGTGA | -0.0472
AGCGAGGC | 0.197
ATAGGATG | 0.0575
AATCTATA | 0.186
AAGCGTAC | -0.161
CGCAACCG | -0.0368
GATTTAGA | 0.0668
CAGCTTCG | -0.156
GCGAGTTA | 0.104
GACTTCGA | -0.0767
ATAGTAAG | -0.016
AGTCCGCC | -0.105
CACGTACA | -0.192
GCTCAGGA | -0.0645
AAAGTGTT | 0.0647
ACGAAGTA | -0.211
CGTTTTAG | 0.0243
GGACCACA | -0.0525

Sequence | PBM E-score
AATGCGGT | -0.0107
CCTCCAGA | 0.0135
AGGCAGAT | -0.112
AGGTTCCA | -0.203
ACTCGGGG | -0.233
CGGCAAAC | 0.301
ACATCGCT | -0.129
GGACTGTA | -0.041
AGTGTTGC | 0.0625
CAACGGCG | 0.429
AAGAGAAG | -0.0838
AGCGTTGC | 0.165
AGTCAGAG | -0.0983
TAATCGCA | 0.0733
TAAATGCA | 0.187
GGAGTCCA | -0.0786
TAATTAAA | -0.0674
ATCATTGG | -0.167
CATCCCTC | -0.0945
ATACACCC | 0.0561
TGAACGAA | -0.0161
CAAGTGAA | 0.00842

Reference: the supplement of paper PMC3334620
